Screen size: about 310,000 compounds; about 2,200 (0.71%) showed an effect of 50% or more. Effects have a minus sign here. Some of the results follow.
Each compound was assayed against human ether-à-go-go-related gene (hERG) potassium channel (human, UniProt Q12809) (assay: primary screen, population patch clamp on CHO cells stably expressing hERG).
Sequence of human ether-à-go-go-related gene (hERG) potassium channel (Q12809 whole entry, looked up): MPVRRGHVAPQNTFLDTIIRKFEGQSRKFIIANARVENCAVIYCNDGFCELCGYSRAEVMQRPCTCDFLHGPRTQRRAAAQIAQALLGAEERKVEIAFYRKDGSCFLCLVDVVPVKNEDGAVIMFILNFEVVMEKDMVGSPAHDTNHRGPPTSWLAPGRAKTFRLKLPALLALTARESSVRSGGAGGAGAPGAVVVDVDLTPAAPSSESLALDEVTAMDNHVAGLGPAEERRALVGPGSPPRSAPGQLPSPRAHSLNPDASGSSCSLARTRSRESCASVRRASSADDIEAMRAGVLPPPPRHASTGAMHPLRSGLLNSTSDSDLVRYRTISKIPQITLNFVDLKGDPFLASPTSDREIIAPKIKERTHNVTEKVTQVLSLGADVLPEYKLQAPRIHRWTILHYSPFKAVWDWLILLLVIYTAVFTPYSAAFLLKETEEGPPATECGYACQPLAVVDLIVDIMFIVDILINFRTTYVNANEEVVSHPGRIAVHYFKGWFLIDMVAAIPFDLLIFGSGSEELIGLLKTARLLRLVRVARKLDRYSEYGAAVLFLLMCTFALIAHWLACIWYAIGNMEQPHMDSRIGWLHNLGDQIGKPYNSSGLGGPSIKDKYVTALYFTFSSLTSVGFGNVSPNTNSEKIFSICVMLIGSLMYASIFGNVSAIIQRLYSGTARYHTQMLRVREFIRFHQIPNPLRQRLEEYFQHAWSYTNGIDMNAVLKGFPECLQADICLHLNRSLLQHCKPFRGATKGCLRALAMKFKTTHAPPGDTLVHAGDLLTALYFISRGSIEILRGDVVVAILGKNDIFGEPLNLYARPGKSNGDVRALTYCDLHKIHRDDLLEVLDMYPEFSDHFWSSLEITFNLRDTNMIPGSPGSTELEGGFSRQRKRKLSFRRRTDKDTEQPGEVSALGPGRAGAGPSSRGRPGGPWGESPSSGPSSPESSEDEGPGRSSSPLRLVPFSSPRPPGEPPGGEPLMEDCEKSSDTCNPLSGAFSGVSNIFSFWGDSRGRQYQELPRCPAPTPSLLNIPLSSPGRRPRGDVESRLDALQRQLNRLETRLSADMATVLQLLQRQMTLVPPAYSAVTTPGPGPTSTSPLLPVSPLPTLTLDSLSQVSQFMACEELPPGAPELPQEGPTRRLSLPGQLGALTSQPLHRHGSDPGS

| Compound | hERG current change (%, negative = inhibition) at 1uM [%] |
| --- | --- |
| CC(Sc1nnc(C2CC2)n1C1CC1)C(=O)Nc1cccc(S(=O)(=O)N2CCOCC2)c1 (stereo not drawn) | 5.02 |
| CC(=O)Nc1cc(C(=O)OCc2cccc([N+](=O)[O-])c2)ccc1C | 14.2 |
| O=C(CCCc1nc(-c2ccccc2Cl)no1)NCc1cccnc1 | 10.2 |
| O=S(=O)(NC1=NCCCCC1)c1ccc2ccccc2c1 | 8.21 |
| Cc1cccnc1NC(=O)C1CCN(S(=O)(=O)c2c(C)noc2/C=C/c2ccco2)CC1 | 8.83 |
| Cc1cc(Br)ccc1NC(=O)CN(C)C(=O)CN1C(=O)NC2(CCCC2)C1=O | 14.1 |
| CSc1sc(C(=O)NC(=O)NCc2ccncc2)c(C)c1-c1ccon1 | 14.1 |
| Cc1ccc(C(=O)NC(C)c2ccncc2)o1 (stereo not drawn) | 13.9 |
| COc1ccc(CCNC(=O)COc2ccc(-c3ccccc3)cc2)cc1OC | 13.7 |
| O=C(CN1CCCCCC1)Nc1ccc(S(=O)(=O)N2CCOCC2)cc1 | 9.84 |
| COc1ccc(-n2c(/C=C/c3ccc(O)cc3)nc3ccccc3c2=O)cc1 | 0.34 |
| O=C(c1ccc2nc3ccc(Cl)cc3c(=O)n2c1)N1CCOCC1 | -29.3 |
| O=C(Oc1ccc(Cl)c2ccccc12)N1CCCCC1 | 14.2 |
| COc1cccc(C(=O)Nc2ccccc2C(=O)NC2CC2)c1 | 8.99 |
| O=C(NCCCN1CCOCC1)c1cc(-c2ccccc2)on1 | 5.24 |
| COc1ccc(C(=O)C(C)Sc2nnc(C3CC3)n2C2CC2)cc1 (stereo not drawn) | 10.7 |
| Cc1c(C(=O)CN2CCN(c3ccccc3)CC2)c2ccccc2n1C | 15.7 |
| c1ccc2sc(NN=C3CCCC3)nc2c1 | 11.6 |
| O=C(Cn1cc([N+](=O)[O-])cn1)NCc1ccc(-n2cccn2)cc1 | 0.0873 |
| CN(C)c1nc2n(c(=S)n1)CCS2 | 7.21 |
| COCCCN(CCCN)Cc1ccco1 | 11.1 |
| CCn1c(SCC(=O)N/N=C/c2ccc(C)o2)nnc1-c1ccc(C(C)(C)C)cc1 | -1.43 |
| CC(C)c1ccc(S(=O)(=O)N2CCN(C(=O)c3ccncc3)CC2)cc1 | 2.2 |

| Compound | hERG current change (%, negative = inhibition) at 1uM [%] |
| --- | --- |
| Cc1cccc(OCCNc2cc(N3CCN(CCO)CC3)ccc2[N+](=O)[O-])c1.Cl | 2.14 |
| O=C(c1ccncc1)N(Cc1ccco1)Cc1cc2ccccc2[nH]c1=O | -11.4 |
| C=CCNC(=S)NNC(=O)C(CCC(C)C)CC(C)(C)O (stereo not drawn) | -1.52 |
| O=C(Nc1ccccc1Cl)c1ccccc1Cc1ccccc1 | 7.35 |
| Cc1sc2nc(CSCC(=O)Nc3ccc(OC(F)F)cc3)[nH]c(=O)c2c1C | -12.6 |
| CN(CC(=O)NCc1cccc(F)c1)C(=O)c1ccco1 | 2.28 |
| Cc1cc(C)c(NC(=O)CO/N=C2\CCCc3nonc32)c(C)c1 | 3.23 |
| Cc1cc(C)cc(NC(=S)N2C3CCCC2CC(NC(=O)C2CC2)C3)c1 (stereo not drawn) | 1.42 |
| CSc1nnnn1-c1ccc(C(=O)OCC(=O)N2CCOCC2)cc1 | 9.77 |
| O=C(Cc1ccccc1)NC(c1ccco1)c1c(O)ccc2ccccc12 (stereo not drawn) | 14.1 |
| O=C(NC1CCCCC1)c1ccccc1NC(=O)C1CC1 | 9.76 |
| Cc1ccc(S(=O)(=O)NCCC(=O)OCC(=O)N(C)c2ccccc2)cc1 | 19.6 |
| O=[N+]([O-])c1ccc(O)c(/C=N/Nc2ccccn2)c1 | 13.4 |
| COc1ccc(/C=N/S(=O)(=O)c2ccc(C)cc2)cc1 | 24.9 |
| COC(=O)c1cc(OC)c(OC)cc1NC(=O)c1cc(-c2ccccc2)nc2ccccc12.Cl | 1.68 |
| C=C(C)Cc1c(C)c(C#N)c2nc3ccccc3n2c1NCCCN(C)C | -7.57 |
| CCOC(=O)c1oc2ccccc2c1COC(=O)CNC(=O)c1cccc(C)c1 | 17 |
| CN(CC(O)COc1ccc(OCC(O)CN(C)C2CCCCC2)cc1)C1CCCCC1 (stereo not drawn) | 10.4 |
| CCOC(=O)c1ccc(NC(=O)Nc2cc(C)cc(C)n2)cc1 | 11.4 |
| O=C(Cc1cccs1)N/N=C/C(Br)=C/c1ccccc1 | 10.4 |
| Cc1ccc(S(=O)(=O)N2CCN(S(C)(=O)=O)C2)cc1 | 10.8 |
| NC(=S)NNC(=O)COc1ccccc1O | 9.22 |
| Cc1cc(-c2ccccc2)cc(-c2ccccc2)[n+]1C.[Cl-] | 1.72 |

| Compound | hERG current change (%, negative = inhibition) at 1uM [%] |
| --- | --- |
| CCc1cccc(NC(=O)CN(c2ccc(C)cc2)S(=O)(=O)c2c(C)noc2C)c1 | 6.21 |
| C=C(C)c1cccc(C(C)(C)NC(=O)N(Cc2ccccc2)Cc2ccco2)c1 | 8.1 |
| COc1c2ccoc2c(OC[C@@H](O)C(C)(C)OC)c2oc(=O)ccc12 | 13.8 |
| Cc1ccc(Cn2ccc(NC(=O)c3cc(-c4ccccc4)on3)n2)cc1 | 5.33 |
| Cc1cc(OCC(=O)NCCc2c[nH]c3ccccc23)c2c(C)cc(=O)oc2c1 | 12 |
| COC(=O)c1sccc1NC(=O)/C=C/C(=O)O | 6.32 |
| CCN1C(=O)S/C(=C/c2c(OCc3ccc(C(=O)O)cc3)ccc3ccccc23)C1=O | 15.4 |
| Cc1ccc(S(=O)(=O)n2cnc(C)c2)cc1 | 4.01 |
| COc1ccccc1CNC(=O)c1cc2ccccc2oc1=O | 5.12 |
| CCc1ccccc1NC(=S)N(CCN1CCCCCC1)Cc1ccco1 | -8.23 |
| O=C(COC(=O)c1ccccn1)Nc1cccc(Cl)c1 | 12.3 |
| COc1ccc(NS(=O)(=O)c2ccc(NC(C)=O)cc2)c(OC)c1 | 5.54 |
| O=C(NCc1ccccc1)C1=C[C@H](c2ccc(Br)cc2)C[C@H](OCCCCO)O1 | 2.21 |
| CCOC(=O)c1c(NC(=O)CSc2nnnn2-c2ccc(OC)cc2)sc(C)c1C | 10.5 |
| C#CC[N+](C)(C)CCCCCCCCCCCC.[Br-] | 2.14 |
| O=C(O)c1ccc(N2N=C(c3ccccc3)CC2c2ccccc2)cc1 (stereo not drawn) | 18 |
| N#Cc1c(NC(=O)C2CC(c3c(F)cccc3Cl)=NO2)sc2c1CCC2 (stereo not drawn) | -3.01 |
| COc1ccc(NC(=O)Nc2cccc(Cl)c2Cl)c(OC)n1 | 13 |
| CC(OC(=O)c1ccc(Cl)nc1)C(=O)NC1CCCC1 (stereo not drawn) | 15.4 |
| CC(C)Cc1nc2n[nH]c(N)c2c2c1CCC2 | 5.8 |
| CCOc1ccc(N2C(=O)CC(Sc3nc(C)cc(C)n3)C2=O)cc1 (stereo not drawn) | 4.96 |
| N#Cc1ccc(OCC(=O)OCC(=O)Nc2cc(C(F)(F)F)ccc2N2CCOCC2)cc1 | -5.38 |
| O=C(N/N=C\c1c(F)c(F)c(F)c(F)c1F)c1ccc(-c2ccccc2)cc1 | 4.6 |

| Compound | hERG current change (%, negative = inhibition) at 1uM [%] |
| --- | --- |
| COc1ccc(NC(=O)C2CCN(C(=O)[C@@H]3Cc4ccccc4CN3C(=O)OC(C)(C)C)CC2)cc1 | 12.7 |
| C[C@@]12C(=O)OC(=O)[C@]1(C)C1CCC2O1 | 12.8 |
| Cc1ccc(-c2nc3cc(N)ccc3o2)c(C)c1 | 10.2 |
| COc1ccc(C(c2c(O)cc(C)oc2=O)c2c(O)cc(C)oc2=O)cc1 | 7.44 |
| CCOc1ccc(NC(=O)c2ccc(NC(=O)COC(=O)Cc3ccc(OC)cc3)cc2)cc1 | 19.8 |
| COc1ccccc1C(CNC(=O)CCNC(=O)c1ccccc1Cl)N1CCCC1 (stereo not drawn) | 0.0429 |
| C=CCNC(=O)COC(=O)c1ccc(Cl)c(S(=O)(=O)N(Cc2ccccc2)c2ccccc2)c1 | 7.04 |
| COc1ccc(-c2csc(C3=C(O)CN(Cc4ccc(S(N)(=O)=O)cc4)C3=N)n2)cc1OC | 4.7 |
| Cc1ccccc1OCC(=O)NCCNC(=O)c1ccncc1 | 8.59 |
| O=C(C1CC1)N1CCc2cc(S(=O)(=O)N3CCN(c4ccccc4)CC3)ccc21 | 16.8 |
| CC(C)N1CC(C(=O)Nc2ccc(Cl)c([N+](=O)[O-])c2)CC1=O (stereo not drawn) | 15.6 |
| CC1Oc2ccccc2N(Cc2ccccc2F)C1=O (stereo not drawn) | -3.01 |
| C=CC(C)n1c(Br)nc2c1c(=O)[nH]c(=O)n2C (stereo not drawn) | -4.27 |
| OCc1ccnc2oc3ccccc3c12 | 14 |
| O=C(NCc1cccc(Cl)c1)c1cccc(S(=O)(=O)N2CCCC2)c1 | 5.16 |
| COc1ccccc1NC(=O)C(C)OC(=O)C1COc2ccccc2O1 (stereo not drawn) | 9.65 |
| COCCNC(=O)/C(C#N)=c1\s/c(=C\c2ccccc2OC(F)F)c(=O)n1Cc1ccccc1 | 5.59 |
| O=C(CCCN1C(=O)c2ccccc2C1=O)N1CCN(c2ccccn2)CC1 | -6.34 |
| O=C1OCCC1Sc1nc2cc(Cl)ccc2n1Cc1ccccc1 (stereo not drawn) | -7.57 |
| O=[N+]([O-])c1ccc(O)c(/C=N/Nc2ccc(Cl)nn2)c1 | 14.9 |
| Clc1ccc(-c2ccccc2)nn1 | 7.52 |

— PMC4336329 (PLoS ONE, 2015)
